{"source": "PubChem BioAssay AID1476", "about": "(National Center for Advancing Translational Sciences (NCATS), 2009)", "note": "Hit rate of the full screen: of about 200,000 compounds, about 4,500 (2.2%) were called active. The inconclusive results got no clear call from the source; some entries with a clear call stand among them for comparison. Calls come from the whole dose curve; as a rule, active = well fitted inhibition curve with a large enough effect; inconclusive = small, poorly fitted or top-dose-only effect, or effect the other way; inactive = flat fitted curve, though single readings scatter. Potencies of inconclusive entries are doubtful fits and often do not repeat. Potency is the fitted concentration of half-maximal effect; tags give direction and shape of the fitted curve."}
{"biological_target": "Cruzipain (Trypanosoma cruzi) (UniProt P25779)", "sequence (P25779 whole entry, looked up)": "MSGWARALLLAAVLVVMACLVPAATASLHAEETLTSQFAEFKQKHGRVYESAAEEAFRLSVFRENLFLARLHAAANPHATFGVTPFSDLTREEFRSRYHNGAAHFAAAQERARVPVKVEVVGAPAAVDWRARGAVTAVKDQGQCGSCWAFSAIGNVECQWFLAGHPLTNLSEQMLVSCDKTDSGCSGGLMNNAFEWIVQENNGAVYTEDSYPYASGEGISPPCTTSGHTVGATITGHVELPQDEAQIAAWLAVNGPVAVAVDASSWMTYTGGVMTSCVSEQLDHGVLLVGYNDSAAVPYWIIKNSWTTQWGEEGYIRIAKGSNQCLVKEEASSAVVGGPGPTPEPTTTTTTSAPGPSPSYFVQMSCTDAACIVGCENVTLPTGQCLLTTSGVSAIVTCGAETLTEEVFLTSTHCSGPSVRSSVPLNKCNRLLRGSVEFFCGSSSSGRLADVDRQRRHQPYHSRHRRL", "test": "qHTS Assay for Promiscuous and Specific Inhibitors of Cruzain (without detergent); note: nearly all actives have a fitted effect of over 40% in size;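 for max response, negative = inhibition: plate controls were enzyme without inhibitor for no effect and buffer without enzyme for full effect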", "conditions": "purified cruzain, Z-FR-AMC fluorescence, no detergent", "outline": "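Purified cruzain at 1.5 nM, pre-incubated 15 min with compound at room temperature in 100 mM sodium acetate pH 5.5, 5 mM DTT, 0.00005% Triton X-100. Reaction started with 2 uM Z-FR-AMC; AMC fluorescence increase over 60 s gives rate.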"}
{"smiles": "CC(=O)N1CCCc2cc(S(=O)(=O)N3CCN(c4ccccc4F)CC3)ccc21", "Potency": "inconclusive: 39.8 µM [activator, single point]"}
{"smiles": "COC(=O)[C@@]1(Cc2ccc(OC)cc2)[C@H]2c3cc(C(=O)N(C)C)n(Cc4c(CO)[nH]cc(C)c4=O)c3C[C@H]2CN1C(=O)c1ccccc1", "Potency": "inconclusive: 31.6 µM [activator, single point]"}
{"smiles": "Cc1ccccc1OCc1nc2c3cnn(-c4cccc(F)c4)c3ncn2n1", "max response, negative = inhibition": "inactive: -15.1%"}
{"smiles": "Cn1c(=O)n(C)c2cc([N+](=O)[O-])c(N3CCN(C(=O)c4ccccc4Cl)CC3)cc21", "Potency": "inconclusive: 39.8 µM [activator, single point]"}
{"smiles": "COc1cccc(C(=O)Nc2cc3c(cc2C(C)=O)OCCO3)c1", "Potency": "inconclusive: 39.8 µM [activator, single point]"}
{"smiles": "O=C(COC(=O)c1sc2ccccc2c1Cl)NC1CCCCC1", "Potency": "inconclusive: 39.8 µM [inhibitor, single point]"}
{"smiles": "N=c1oc2cc(O)ccc2cc1C(=O)Nc1nc2ccccc2s1", "Potency": "active: 20 µM"}
{"smiles": "CCCCCCCCNC(=O)CCNC(=O)c1ccc(C(C)(C)C)cc1", "Potency": "inconclusive: 31.6 µM [activator, partial curve]"}
{"smiles": "CCOc1ccccc1NC1(c2ccccc2)C(=O)c2ccccc2C1=O", "Potency": "inconclusive: 39.8 µM [inhibitor, single point]"}
{"smiles": "Cn1c(N)c(C(=O)COC(=O)CCCc2c[nH]c3ccccc23)c(=O)n(C)c1=O", "Potency": "inconclusive: 39.8 µM [activator, single point]"}
{"smiles": "CCOc1c(Cl)cc(/C=N/NC(N)=S)cc1OC", "Potency": "active: 0.501 µM"}
{"smiles": "CN=C(N)/N=C(\\N)Nc1cc2ccccc2c2ccccc12", "max response, negative = inhibition": "inactive: 1.42%"}
{"smiles": "Cc1c(C#N)c(N=CN(C)C)c(C(=O)c2ccccc2)n1-c1ccc(Br)cc1", "Potency": "inconclusive: 39.8 µM [activator, single point]"}
{"smiles": "CCc1ccc2c(c1)C(c1ccc([N+](=O)[O-])cc1)=NNC(c1ccc(F)cc1)=N2", "Potency": "inconclusive: 25.1 µM [inhibitor, single point]"}
{"smiles": "Cc1ccc(S(=O)(=O)c2cn(CC(=O)Nc3cccc(Cl)c3)c3ccccc3c2=O)cc1", "Potency": "active: 31.6 µM"}
{"smiles": "CC1=C(C(=O)OCc2ccccc2)C(c2ccc3ccccc3c2)NC(=O)N1CCCCCC(=O)O", "note": "(stereo unspecified)", "Potency": "inconclusive: 39.8 µM [activator, single point]"}
{"smiles": "COc1ccc2[nH]c3c(c2c1)CCn1c-3nc2ccccc2c1=O", "max response, negative = inhibition": "inactive: -13.4%"}
{"smiles": "COc1ccc(OC)c(NC(=O)Cn2c(=O)c3cccn3c3ccccc32)c1", "max response, negative = inhibition": "inactive: -19.9%"}
{"smiles": "O=C(NCC(c1cccnc1)N1CCN(c2ccccc2F)CC1)C(=O)Nc1ccc(F)cc1F", "note": "(stereo unspecified)", "max response, negative = inhibition": "inactive: 5.28%"}
{"smiles": "O=c1[nH]c(CN(CCO)CCO)nc2c1C1(CCCCC1)Cc1ccccc1-2", "Potency": "inconclusive: 31.6 µM [activator, single point]"}
{"smiles": "S=C1NC(c2cccs2)=CC(c2ccc(Br)cc2)N1", "note": "(stereo unspecified)", "Potency": "inconclusive: 31.6 µM [inhibitor, single point]"}
{"smiles": "O=C(CSc1nnc(Nc2ccccc2F)s1)Nc1cccc(S(=O)(=O)N2CCCCC2)c1", "Potency": "inconclusive: 25.1 µM [inhibitor, single point]"}
{"smiles": "Cc1ccc(C2C3=C(CC(C)(C)CC3=O)N(CCN3CCOCC3)C3=C2C(=O)CC(C)(C)C3)cc1", "Potency": "inconclusive: 25.1 µM [activator, partial curve]"}
{"smiles": "Cc1cc(/C=N/NC(N)=S)c(C)n1-c1ccc(Cl)c(Cl)c1", "Potency": "inconclusive: 0.126 µM [inhibitor, full curve]"}
{"smiles": "CCOC(=O)c1c(NC(=O)c2cc(-c3ccc(OC)cc3)on2)sc(C)c1C", "max response, negative = inhibition": "inactive: -9.56%"}
{"smiles": "COc1ccc(C(=O)NC(=S)Nc2nnn(C)n2)cc1", "max response, negative = inhibition": "inactive: 7.92%"}
{"smiles": "O=C1CC(c2ccc(F)cc2)Cc2nc(N3CCc4ccccc43)ncc21", "note": "(stereo unspecified)", "Potency": "inconclusive: 25.1 µM [inhibitor, partial curve, poor fit]"}
{"smiles": "C=CCNC(=S)NNC(=O)c1cc(C)nc2ccccc12", "max response, negative = inhibition": "inactive: 8.65%"}
{"smiles": "Cc1ccc(Cn2c(CNC(=O)c3ccccc3Br)nc3cccnc32)cc1", "max response, negative = inhibition": "inactive: -4.07%"}
{"smiles": "CCc1ccccc1NC(=O)Cc1c(C(=O)O)[nH]c2ccc(Cl)cc12", "max response, negative = inhibition": "inactive: -2.91%"}
{"smiles": "Cc1cc(NC(=O)c2sc(Nc3cccc(C(F)(F)F)c3)nc2N)no1", "Potency": "inconclusive: 39.8 µM [inhibitor, single point]"}
{"smiles": "CCn1c2ccccc2c2cc(N=C3SC(CC(=O)Nc4ccccc4OC)C(=O)N3C)ccc21", "note": "(stereo unspecified)", "Potency": "inconclusive: 39.8 µM [inhibitor, single point]"}
{"smiles": "O=C(c1ccc(Cl)cc1)c1cc(-c2ccccn2)c(N2CCOCC2)s1", "Potency": "inconclusive: 39.8 µM [activator, single point]"}
{"smiles": "COc1cccc(-c2ccc3c(N)c(C(=O)Nc4ccc(C)c(F)c4)sc3n2)c1", "Potency": "inconclusive: 39.8 µM [inhibitor, single point]"}
{"smiles": "CCOc1cc(C2c3c(-c4ccccc4O)n[nH]c3C(=O)N2CCc2ccccc2)ccc1O", "note": "(stereo unspecified)", "Potency": "inconclusive: 39.8 µM [inhibitor, single point]"}
{"smiles": "CNC(=O)COc1ccc(Nc2nnc(-c3ccc(C)c(S(=O)(=O)NC(C)(C)C)c3)c3ccccc23)cc1", "Potency": "inconclusive: 39.8 µM [activator, single point]"}
{"smiles": "COc1ccccc1NC(=S)NNC(=O)c1ccc(Cl)cc1Cl", "Potency": "inconclusive: 1 µM [activator, single point]"}
{"smiles": "Fc1ccc(CNc2nc(-c3ccccc3)cc(C(F)(F)F)n2)cc1", "max response, negative = inhibition": "inactive: 5.58%"}
{"smiles": "CC(C)Oc1ccc(C(=O)Nc2ccc(Cl)c(S(=O)(=O)Nc3ccc(Cl)cc3)c2)cc1", "Potency": "inconclusive: 31.6 µM [inhibitor, single point]"}
{"smiles": "CCC(C(=O)Nc1ccc(C(C)=O)cc1)n1c(C)c2cnn(-c3ccccc3)c(=O)c2c1C", "note": "(stereo unspecified)", "Potency": "inconclusive: 39.8 µM [activator, single point]"}
{"smiles": "COc1ccc(NS(=O)(=O)c2ccc3[nH]c4c(c3c2)CCCCCC4)cc1", "Potency": "inconclusive: 39.8 µM [inhibitor, single point]"}
